Some of the results follow. The list includes weakly bound sequences.
biological target: T1, MBP-FoxP3dN (UniProt Q99JB6); assay: PD-seq (MBP pull-down with sequencing); conditions: 20 mM Tris-HCl pH 7.5, 100 mM NaCl, 1.5 mM MgCl2, 0.4 uM protein, 0.1 uM dsDNA library, 30 min, room temperature, amylose pull-down; high values mean tight binding; double strand, one strand shown
T1 sequence: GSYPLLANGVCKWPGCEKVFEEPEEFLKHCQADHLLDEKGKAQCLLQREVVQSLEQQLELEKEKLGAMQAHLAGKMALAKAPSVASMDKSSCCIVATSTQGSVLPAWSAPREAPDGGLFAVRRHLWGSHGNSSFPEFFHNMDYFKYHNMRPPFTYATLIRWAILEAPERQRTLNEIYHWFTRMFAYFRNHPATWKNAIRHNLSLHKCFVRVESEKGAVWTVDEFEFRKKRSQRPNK

Sequence	binding signal (RPM ratio (pull-down/input))
GATGATTGTTCTCCCAGCTGATGAATTGGCAGGATCGAGTAAACAAATTTTCCTAATCTTTCTGTTCAAGCGCCATCTAC	0.271
GATGATTGTTCTCCCAGCTGATGAATTGTTCGGGTCGAGTAAACAAATTTTCCTAATCTTTCTGTTCAAGCGCCATCTAC	0.273
GATGATTGTTCTCCCAGCTGATGAATTGAATCATTCGAGTAAACAAATTTTCCTAATCTTTCTGTTCAAGCGCCATCTAC	0.789
GATGATTGTTCTCCCAGCTGATGAATTAGAAATTTCGAGTAAACAAATTTTCCTAATCTTTCTGTTCAAGCGCCATCTAC	0.246
GATGATTGTTCTCCCAGCTGATGAATTTTCATGATCGAGTAAACAAATTTTCCTAATCTTTCTGTTCAAGCGCCATCTAC	0.323
GATGATTGTTCTCCCAGCTGATGAATTCCCATATTCGAGTAAACAAATTTTCCTAATCTTTCTGTTCAAGCGCCATCTAC	0.358
GATGATTGTTCTCCCAGCTGATGAATTCCCGTGTTCGAGTAAACAAATTTTCCTAATCTTTCTGTTCAAGCGCCATCTAC	0.47
GATGATTGTTCTCCCAGCTGATGAATTTAATCACTCGAGTAAACAAATTTTCCTAATCTTTCTGTTCAAGCGCCATCTAC	0.559
GATGATTGTTCTCCCAGCTGATGAATTGGTAACTTCGAGTAAACAAATTTTCCTAATCTTTCTGTTCAAGCGCCATCTAC	0.514
GATGATTGTTCTCCCAGCTGATGAATTGTGTTTATCGAGTAAACAAATTTTCCTAATCTTTCTGTTCAAGCGCCATCTAC	8.53
GATGATTGTTCTCCCAGCTGATGAATTTTAGATGTCGAGTAAACAAATTTTCCTAATCTTTCTGTTCAAGCGCCATCTAC	0.461
GATGATTGTTCTCCCAGCTGATGAATTCAACCTATCGAGTAAACAAATTTTCCTAATCTTTCTGTTCAAGCGCCATCTAC	0.393
GATGATTGTTCTCCCAGCTGATGAATTAATTTTATCGAGTAAACAAATTTTCCTAATCTTTCTGTTCAAGCGCCATCTAC	0.794
GATGATTGTTCTCCCAGCTGATGAATTCTTAGGTTCGAGTAAACAAATTTTCCTAATCTTTCTGTTCAAGCGCCATCTAC	0.272
GATGATTGTTCTCCCAGCTGATGAATTGGCGTCGTCGAGTAAACAAATTTTCCTAATCTTTCTGTTCAAGCGCCATCTAC	0.961
GATGATTGTTCTCCCAGCTGATGAATTACGGCTTTCGAGTAAACAAATTTTCCTAATCTTTCTGTTCAAGCGCCATCTAC	1.11
GATGATTGTTCTCCCAGCTGATGAATTCGAAAAATCGAGTAAACAAATTTTCCTAATCTTTCTGTTCAAGCGCCATCTAC	0.194
GATGATTGTTCTCCCAGCTGATGAATTTTAGGTGTCGAGTAAACAAATTTTCCTAATCTTTCTGTTCAAGCGCCATCTAC	0.519
GATGATTGTTCTCCCAGCTGATGAATTTCCACTATCGAGTAAACAAATTTTCCTAATCTTTCTGTTCAAGCGCCATCTAC	0.392
GATGATTGTTCTCCCAGCTGATGAATTTAAGGATTCGAGTAAACAAATTTTCCTAATCTTTCTGTTCAAGCGCCATCTAC	0.302

Sequence	binding signal (RPM ratio (pull-down/input))
GATGATTGTTCTCCCAGCTGATGAATTCTGCTCGTCGAGTAAACAAATTTTCCTAATCTTTCTGTTCAAGCGCCATCTAC	0.61
GATGATTGTTCTCCCAGCTGATGAATTGTATTCTTCGAGTAAACAAATTTTCCTAATCTTTCTGTTCAAGCGCCATCTAC	1.92
GATGATTGTTCTCCCAGCTGATGAATTTCCGTCATCGAGTAAACAAATTTTCCTAATCTTTCTGTTCAAGCGCCATCTAC	0.58
GATGATTGTTCTCCCAGCTGATGAATTTTAGATCTCGAGTAAACAAATTTTCCTAATCTTTCTGTTCAAGCGCCATCTAC	0.311
GATGATTGTTCTCCCAGCTGATGAATTGCCCGGCTCGAGTAAACAAATTTTCCTAATCTTTCTGTTCAAGCGCCATCTAC	0.303
GATGATTGTTCTCCCAGCTGATGAATTAGGGTGTTCGAGTAAACAAATTTTCCTAATCTTTCTGTTCAAGCGCCATCTAC	0.81
GATGATTGTTCTCCCAGCTGATGAATTACCAATATCGAGTAAACAAATTTTCCTAATCTTTCTGTTCAAGCGCCATCTAC	0.98
GATGATTGTTCTCCCAGCTGATGAATTATTACAATCGAGTAAACAAATTTTCCTAATCTTTCTGTTCAAGCGCCATCTAC	0.712
GATGATTGTTCTCCCAGCTGATGAATTAAGGGGTTCGAGTAAACAAATTTTCCTAATCTTTCTGTTCAAGCGCCATCTAC	0.443
GATGATTGTTCTCCCAGCTGATGAATTCGTCGTCTCGAGTAAACAAATTTTCCTAATCTTTCTGTTCAAGCGCCATCTAC	1.31
GATGATTGTTCTCCCAGCTGATGAATTAGTTGTCTCGAGTAAACAAATTTTCCTAATCTTTCTGTTCAAGCGCCATCTAC	5.87
GATGATTGTTCTCCCAGCTGATGAATTGTCAGTCTCGAGTAAACAAATTTTCCTAATCTTTCTGTTCAAGCGCCATCTAC	0.476
GATGATTGTTCTCCCAGCTGATGAATTAATGGACTCGAGTAAACAAATTTTCCTAATCTTTCTGTTCAAGCGCCATCTAC	0.419
GATGATTGTTCTCCCAGCTGATGAATTAGTTGAATCGAGTAAACAAATTTTCCTAATCTTTCTGTTCAAGCGCCATCTAC	0.579
GATGATTGTTCTCCCAGCTGATGAATTAAATCGATCGAGTAAACAAATTTTCCTAATCTTTCTGTTCAAGCGCCATCTAC	0.319
GATGATTGTTCTCCCAGCTGATGAATTTATAGGCTCGAGTAAACAAATTTTCCTAATCTTTCTGTTCAAGCGCCATCTAC	0.83
GATGATTGTTCTCCCAGCTGATGAATTGGCAGGTTCGAGTAAACAAATTTTCCTAATCTTTCTGTTCAAGCGCCATCTAC	0.326
GATGATTGTTCTCCCAGCTGATGAATTCTTCCGCTCGAGTAAACAAATTTTCCTAATCTTTCTGTTCAAGCGCCATCTAC	0.222
GATGATTGTTCTCCCAGCTGATGAATTCTTGGTATCGAGTAAACAAATTTTCCTAATCTTTCTGTTCAAGCGCCATCTAC	0.429
GATGATTGTTCTCCCAGCTGATGAATTGGCTCAATCGAGTAAACAAATTTTCCTAATCTTTCTGTTCAAGCGCCATCTAC	0.265

Source: paper PMC12820563
